Measurements reported in ChEMBL document CHEMBL4888484, “Replenishing the malaria drug discovery pipeline: Screening and hit evaluation of the MMV Hit Generation Library 1 (HGL1) against asexual blood stage Plasmodium falciparum ,using a nano luciferase reporter read-out” (2022).
The whole screen tested about 150,000 compounds, of which about 540 (0.36%) showed an effect of 50% or more. The list shows a part of the results.

system: Plasmodium falciparum; assay: Primary screen in NF54 nanoGlo assay, in single point, at 2uM, 72h; a lower Z score goes with more inhibition; format: functional, Erythrocyte; settings: timepoint 72 hour

Row | Compound | % Inhibition | Z score
1 | C[C@@]1(C(=O)Nc2ccc3c(c2)CCN3)CNCCO1 | 16% | -2.08
2 | Cc1ccc(CCNC(=O)C2CCN(S(=O)(=O)c3ccc4nc5c(c(C(=O)O)c4c3)CCCC5)CC2)cc1 | -14% | 2.12
3 | C[C@@H]1CN(C(=O)c2nnc3ccccc3n2)C(C)(C)C1 | -19% | 2.49
4 | Cc1c(C(=O)NS(=O)(=O)C[C@H]2CCOC2)cccc1-c1ccccn1 | -10% | 1.6
5 | OCc1cc(-c2ccccc2OCc2ccccc2)ccn1 | -5% | 0.85
6 | CC(C)c1ccoc1C(=O)N1CCc2nn[nH]c2C1 | -14% | 1.66
7 | Cc1cnc(C2CCN(Cc3cccn3C)CC2)n1[C@H](C)CO | -6% | 1.08
8 | O=C(NC1(c2cccc(Cl)c2)CCCC1)c1cn[nH]c1 | -8% | 1.37
9 | CN1CCN(CC(=O)NCCc2ccc(F)cc2)C[C@]12CCNC(=O)CC2 | 3% | -0.5
10 | Cc1c(CN2CCC[C@H]2C(F)(F)F)cnn1CCN1CCCOCC1 | 0% | 0.01
11 | CC1(C)Cc2cc(S(=O)(=O)Nc3cn[nH]c3)ccc2O1 | -5% | 0.81
12 | CC[C@@H](CN(C)C)NC(=O)c1coc(COc2ccc3c(c2)OCO3)n1 | -3% | 0.43
13 | CC(NC(=O)c1ccc(S(=O)(=O)NC2CCS(=O)(=O)C2)cc1)c1ccc(F)cc1F (stereo unspecified) | 2% | -0.35
14 | CN(C)c1nc(CN[C@H]2CCCc3sccc32)cs1 | 5% | -0.72
15 | CCN(CCN(C)C)C(=O)c1cccc(-c2ccc3nccc(N)c3c2)c1 | 96% | -13.62
16 | O=C(O)C[C@@H]1CN(C(=O)c2ccc3c(c2)OCO3)C[C@@H]1c1c[nH]nn1 | -3% | 0.47
17 | Fc1cccc(-c2nccn2Cc2noc(Cc3ccccc3)n2)c1 | 9% | -1.14
18 | CCN1CCN(Cc2ccc(NC(=O)CCS(=O)(=O)c3ccc4c(c3)CC(=O)N4C)cc2)CC1 | 7% | -0.88
19 | COc1ncc(C(=O)N2C[C@@H](c3ccccc3)CC2(C)C)cn1 | 0% | -0.05
20 | Cc1ocnc1C(=O)NCc1cc2n(n1)CCCN(CC(C)C)C2 | 4% | -0.58
21 | C[C@H]1OCC[C@H]1NCc1noc2c1CC(C)(C)CC2 | 37% | -3.83
22 | CCCc1nc2ncnn2c(O)c1NC(=O)Nc1ccccc1Cl | -8% | 1.5
23 | O=C(Cc1ccc(F)cc1)NCC1CCN(c2ncnc3[nH]ccc23)CC1 | -14% | 2.01
24 | Cc1cccc(OC2CN(CCn3cnnc3)C2)c1 | -12% | 2.38
25 | C[C@@H](C(=O)N(CC(F)F)c1ccc(F)cc1)n1cncn1 | -17% | 2.3
26 | CN(C(=O)CCc1ccncn1)C1CCN(CC(F)(F)F)CC1 | -8% | 1.21
27 | CCN1CCN(c2c(CN(C(=O)Nc3cccc(Cl)c3)C3CC3)c(C)nn2-c2cccc(F)c2)CC1 | 1% | -0.17

Row | Compound | % Inhibition | Z score
28 | CN1CCN([C@H]2CCOC3(CCN(C(=O)c4cccc(F)c4)CC3)C2)CC1 | -7% | 0.9
29 | Cn1ncnc1C(=O)N1CCC(CC2CCCCC2)CC1 | -8% | 1.17
30 | CN(C(=O)[C@@H]1COc2ccccc2C1)c1cc(C#N)c2ccccc2n1 | -12% | 1.65
31 | Cc1nc(C)c(CC(=O)Nc2cccc(N3C(=O)CC[C@@H]3C)c2)s1 | -5% | 0.69
32 | NC(=O)C1CCN(C(=O)c2cc(N3CCOCC3)ncn2)CC1 | -7% | 1.09
33 | O=C(Cn1cnc2nc(N3CCOCC3)ncc2c1=O)Nc1ccc(Cl)cc1 | -10% | 1.14
34 | CC1(C)CCCC[C@@H]1NC(=O)c1coc(S(N)(=O)=O)c1 | -11% | 1.24
35 | O=C(NCCc1ccccn1)N1CCN(c2nccs2)CC1 | -5% | 0.81
36 | CCN(Cc1ccc(N(C)C)nc1)[C@H]1COC[C@@H]1O | 9% | -0.97
37 | O=C(CONS(=O)(=O)c1ccc(F)cc1)OCc1ccc(Cl)cc1 | -8% | 1.53
38 | CN1CCN([C@H]2CCN(c3nc4ccccc4s3)C[C@H]2CCCO)CC1 | -3% | 0.4
39 | CC(C)CS(=O)(=O)NC[C@]1(O)CCCc2occc21 | 9% | -1.11
40 | COCCN1C[C@]2(CCCN(C(=O)c3cc[nH]c3C)C2)CCC1=O | -9% | 0.84
41 | CC(=O)c1ccc(C)cc1OCC(=O)N1CCC(C(=O)N2CCCC2)CC1 | -16% | 2.14
42 | CC(C)(C)c1ncc(C(=O)NCc2ccc3c(n2)CCCC3)cn1 | -8% | 0.99
43 | CN1C(=O)c2cc(C(F)(F)F)ccc2O[C@H]2CN(Cc3ccncc3Cl)C[C@H]21 | 12% | -1.73
44 | Cc1cnn(CCC(=O)N2CCC[C@H](N(CCCN3CCCC3)C(=O)C(C)C)C2)c1 | -3% | 0.54
45 | CC1(C)CC(=O)C2=C(C1)NC(Nc1nc3ccccc3o1)=NC21CCCCC1 | 34% | -3.84
46 | CCOCC(C)(C)NC(=O)c1cc(N2CCNC(=O)C2)ccn1 | -11% | 1.49
47 | C#CCCN1CCN(C(=O)c2cc(=O)[nH]c3ccc(Cl)cc23)CC1 | 2% | -0.32
48 | Cc1nccn1C[C@H]1CCCN(Cc2ccsc2)C1 | -10% | 1.19
49 | CC(=O)c1ccc(N2CCN(C3CCCCCCC3)CC2)cc1 | -3% | 0.56
50 | CC(C)c1nsc(NC2CCCC3OCCC23)n1 (stereo unspecified) | -6% | 0.85
51 | O=C(c1ccc(N2CCCC2=O)cc1)N1CCc2[nH]c(-c3ccccc3)nc2C1 | 1% | -0.24
52 | Cc1ccc(C(=O)Oc2ccc(N(C(=O)c3ccc(C)cc3)S(=O)(=O)c3ccc4ccccc4c3)c3ccccc23)cc1 | 3% | -0.38
53 | O=C(NC[C@H]1CC(=O)N(C2CC2)C1)N1CCC(Cc2cccc(F)c2)CC1 | -3% | 0.48
